Test results reported in the supplement of paper PMC7826260.
This is one part of the list. One pool of 16,384 single-stranded DNAs met each Rep nickase domain in vitro (3 µM enzyme, 1 h, 37 °C); shown is the middle of each 90-letter strand. Uncut reads are compared with the no-enzyme pool on a log2 scale; the lower, the more was cut; hits are not called. Counts are relative to all reads; values above 0 arise when much of the pool is cut.

Experiments:
Assay in all cases: uncleaved DNA left, log2 of reads against the no-enzyme library (log2 ratio); higher = less cleavage (more negative = more Rep cleavage of the k-mer); sequences stand for … in CTCGTCCG…ACCGGAGA
[1] = system: T1, Rep nickase domain of Muscovy duck circovirus
T1 sequence (Rep 1-111, printed without the tag): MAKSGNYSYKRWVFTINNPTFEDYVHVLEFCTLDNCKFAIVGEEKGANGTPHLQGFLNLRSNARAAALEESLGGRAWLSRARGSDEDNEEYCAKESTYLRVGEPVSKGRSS
Method: (§1)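 A pool of 90-nt single-stranded DNAs with seven random bases just before the constant AC of the nick site (name = the seven bases) was cut by 3 µM recombinant His6-SUMO-tagged Rep nickase domain (300 nM DNA, 50 mM HEPES pH 8.0, 50 mM NaCl, 1 mM MnCl2, 1 h, 37 °C, three replicates). Uncut DNA was amplified and sequenced.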

[2] = system: T2, Rep nickase domain of banana bunchy top virus
T2 sequence (Rep 1-94, printed without the tag): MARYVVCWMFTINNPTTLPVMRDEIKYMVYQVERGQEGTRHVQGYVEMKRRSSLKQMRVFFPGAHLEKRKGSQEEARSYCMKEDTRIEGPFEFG
Method: as §1

[3] = system: T3, Rep nickase domain of cabbage leaf curl virus
T3 sequence (Rep 1-116, printed without the tag): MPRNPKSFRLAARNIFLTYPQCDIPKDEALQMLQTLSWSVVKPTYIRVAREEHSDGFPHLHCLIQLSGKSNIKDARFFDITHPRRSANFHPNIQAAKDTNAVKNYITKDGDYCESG
Method: as §1

[4] = system: T4, Rep nickase domain of chickpea chlorotic dwarf virus
T4 sequence (Rep 1-124, printed without the tag): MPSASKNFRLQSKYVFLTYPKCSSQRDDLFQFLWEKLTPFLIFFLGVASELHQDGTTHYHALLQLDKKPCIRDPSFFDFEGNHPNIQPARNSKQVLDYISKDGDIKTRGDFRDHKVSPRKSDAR
Method: as §1

[5] = system: T5, Rep nickase domain of faba bean necrotic yellows virus
T5 sequence (Rep 1-98, printed without the tag): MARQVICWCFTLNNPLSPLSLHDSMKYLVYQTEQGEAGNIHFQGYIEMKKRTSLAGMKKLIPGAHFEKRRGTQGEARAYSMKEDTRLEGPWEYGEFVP
Method: as §1

[6] = system: T6, Rep nickase domain of maize striate mosaic virus
T6 sequence (Rep 1-117, printed without the tag): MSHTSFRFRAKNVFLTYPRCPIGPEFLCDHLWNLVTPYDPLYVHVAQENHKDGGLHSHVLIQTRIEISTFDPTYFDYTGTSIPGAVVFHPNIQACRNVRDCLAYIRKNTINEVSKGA
Method: as §1

[7] = system: T7, Rep nickase domain of porcine circovirus 2
T7 sequence (Rep 2-116, printed without the tag): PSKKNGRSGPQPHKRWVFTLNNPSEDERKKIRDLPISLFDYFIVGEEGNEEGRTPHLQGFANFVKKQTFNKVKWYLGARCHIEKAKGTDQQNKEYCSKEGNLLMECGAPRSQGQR
Method: as §1

[8] = system: T8, Rep nickase domain of tomato golden mosaic virus
T8 sequence (Rep 1-124, printed without the tag): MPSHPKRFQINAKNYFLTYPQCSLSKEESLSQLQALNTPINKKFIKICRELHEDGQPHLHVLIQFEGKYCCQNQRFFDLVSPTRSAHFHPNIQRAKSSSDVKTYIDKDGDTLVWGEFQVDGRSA
Method: as §1

[9] = system: T9, Rep nickase domain of tomato yellow leaf curl virus
T9 sequence (Rep 1-136, printed without the tag): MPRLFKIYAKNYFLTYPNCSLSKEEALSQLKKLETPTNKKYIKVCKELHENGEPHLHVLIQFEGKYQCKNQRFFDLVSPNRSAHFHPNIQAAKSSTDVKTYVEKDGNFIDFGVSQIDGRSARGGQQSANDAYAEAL
Method: as §1

[10] = system: T10, Rep nickase domain of wheat dwarf virus
T10 sequence (Rep 1-137, printed without the tag): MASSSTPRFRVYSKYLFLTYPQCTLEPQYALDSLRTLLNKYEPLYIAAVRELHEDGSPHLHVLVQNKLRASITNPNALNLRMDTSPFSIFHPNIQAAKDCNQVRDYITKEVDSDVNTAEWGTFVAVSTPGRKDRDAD
Method: as §1

Row | Sequence | uncleaved DNA left (log2) [1] | uncleaved DNA left (log2) [2] | uncleaved DNA left (log2) [3] | uncleaved DNA left (log2) [4] | uncleaved DNA left (log2) [5] | uncleaved DNA left (log2) [6] | uncleaved DNA left (log2) [7] | uncleaved DNA left (log2) [8] | uncleaved DNA left (log2) [9] | uncleaved DNA left (log2) [10]
1 | ACGGTCT | -0.094 | -0.199 | -0.298 | -1.5 | 0.00589 | -0.491 | -0.0333 | -0.0739 | -0.142 | -0.193
2 | AAGACTG | 0.0497 | 0.00234 | -0.0685 | 0.725 | -0.0464 | 1.73 | 0.0568 | 0.0625 | -0.127 | 0.028
3 | CTCTATG | 0.0783 | -0.0612 | -0.43 | -0.714 | 0.0194 | -1.02 | 0.0694 | 0.0158 | 0.0924 | -0.0214
4 | AGCGAAC | -0.167 | -0.0531 | -0.104 | 0.398 | -0.0147 | 0.97 | -0.0342 | -0.0468 | -0.0691 | -0.0159
5 | GGCACGA | 0.0478 | -0.0332 | 0.592 | 1.44 | -0.00106 | 1.72 | 0.222 | -0.00578 | 0.101 | 0.141
6 | CCGGACA | -0.195 | -0.122 | 0.507 | 1.14 | -0.136 | 1.75 | -0.0873 | -0.0313 | -0.122 | -0.137
7 | GCGGCTG | -0.0872 | 0.0656 | 0.0793 | 0.647 | -0.0505 | 1.77 | -0.0373 | -0.02 | -0.0117 | 0.0888
8 | GTCAGAG | 0.0427 | 0.161 | 0.39 | 0.765 | -0.0246 | 1.17 | 0.235 | 0.162 | 0.0705 | 0.0877
9 | TTATGGG | 0.0627 | -0.0298 | -0.363 | -0.416 | 0.0506 | -0.747 | 0.168 | 0.0413 | -0.0208 | 0.0316
10 | GGTCGAT | 0.0239 | -0.0312 | 0.656 | 1.39 | -0.0796 | 1.84 | 0.137 | 0.044 | 0.0772 | 0.126
11 | GCTTTAC | -0.0398 | -0.0111 | -0.0386 | -0.463 | 0.019 | 0.196 | -0.00928 | -0.0375 | 0.0309 | -0.000276
12 | GTGGATG | -0.0639 | 0.0832 | 0.333 | 1.09 | -0.091 | 1.45 | 0.239 | 0.171 | 0.000642 | 0.102
13 | CATACGG | -0.0217 | 0.0712 | 0.493 | 1.31 | -0.0349 | 1.56 | 0.0982 | 0.116 | -0.0915 | 0.0152
14 | ATGGAAT | 0.2 | 0.181 | 0.441 | 1.7 | 0.153 | 1.9 | 0.278 | 0.124 | -0.0428 | 0.236
15 | TCGTGCA | -0.0416 | -0.0905 | -0.502 | -0.773 | -0.0706 | -1.09 | -0.876 | -0.0189 | -0.0202 | -0.285
